“And” between values parts separate entries of the source, which are not always exact repeats. Identical values can stand only once. Among all 340,000 compounds or so, about 6,900 (2%) were called active. Cut-off read from the data, not from the text of the source: active = inhibition above about 30%; inactive = below that, where a call was filed. Only a part is listed here, and it is no random draw. Entries without a call were filed so in the source.
molecular target: D(2) dopamine receptor (Homo sapiens) (UniProt P14416); assay: HTS Assay for Allosteric Antagonists of the Human D2 Dopamine Receptor: Primary Screen for Antagonists; conditions: HEK293 TREx D2 cells, calcium flux, dopamine EC80; at 10 µM; stronger effect = higher value; note: 0% is about no effect
Chain of UniProt P14416 (P14416 whole entry, looked up): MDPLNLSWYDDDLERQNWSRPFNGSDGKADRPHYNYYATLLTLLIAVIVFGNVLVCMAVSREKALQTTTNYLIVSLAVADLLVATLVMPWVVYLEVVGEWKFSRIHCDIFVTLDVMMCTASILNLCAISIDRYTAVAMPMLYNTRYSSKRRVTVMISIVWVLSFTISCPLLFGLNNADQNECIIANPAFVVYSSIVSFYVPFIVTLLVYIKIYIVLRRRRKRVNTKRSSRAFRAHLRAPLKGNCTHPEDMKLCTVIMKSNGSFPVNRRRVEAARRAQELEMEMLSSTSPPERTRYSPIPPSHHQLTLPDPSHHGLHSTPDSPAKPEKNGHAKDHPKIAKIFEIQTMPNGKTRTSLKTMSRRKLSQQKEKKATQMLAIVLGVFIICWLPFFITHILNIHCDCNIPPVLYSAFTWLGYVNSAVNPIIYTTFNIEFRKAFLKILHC
Method in brief: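 HEK293 T-REx D2 cells, tet-induced, calcium dye no-wash. Cpd pintool add, 180 s kinetic, then EC80 DA, 180 s kinetic. Ca flux read.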

Compound	inhibition
COc1ccc(NC(=O)C2=CC(c3ccco3)=NS(=O)(=O)N2C)cc1	-1.84%
Cc1ccc(/C=N/N2CCN(Cc3ccc(C)cc3)CC2)cc1	active: 54.9%
COc1ccc2nc3sc(C(=O)NCCN4CCc5ccccc5C4)cc3cc2c1	active: 53.5%
CCS(=O)(=O)c1nc(S(=O)(=O)c2ccc(Cl)cc2)c(NCc2ccccc2Cl)s1	1.03%
Cc1ccccc1-c1nc2cc(NC(=O)COc3ccc(F)cc3)ccc2o1	7.63%
CCOC(=O)c1c(-c2ccccc2)csc1NC(=O)c1cc(-c2ccc(Cl)cc2)on1	4.87%
CC1=C(C(=O)Nc2ccc(C)cc2C)C(c2ccccc2)n2ncc(C(=O)Nc3ccccc3)c2N1 (stereo unspecified)	-11.8%
CCOC(=O)c1sc(NC(=O)c2cc(-c3ccc(F)cc3)on2)c(C(=O)OCC)c1C	-8.49%
COC(=O)c1ccc2c(=O)n(CCCCCC(=O)N3CCN(c4ccc(OC)cc4)CC3)c(=O)[nH]c2c1	16.7%
Cc1ccc(NC(=O)C2CCCN(S(=O)(=O)c3cccc4cccnc34)C2)c(C)c1 (stereo unspecified)	-1.41%
Cc1c(CC(=O)NCCc2ccc(Cl)cc2)c(=O)oc2c(C)c3occ(C(C)(C)C)c3cc12	-6.84%
CCOC(=O)CSc1nc2ccc(NC(=O)c3ccccc3F)cc2s1	4.15%
CCc1ccc(-n2nc3ccc(NC(=O)c4ccc(C#N)cc4F)cc3n2)cc1	15.2%
COc1cccc(CNC(=O)C2CCN(c3nnc(-n4c(C)ccc4C)s3)CC2)c1	10.7%
CCC(CC)C(=O)Nc1cccc(-c2nc3ccccc3s2)c1	5.1%
CCOc1ccc(-c2nnc(SCC(=O)NCc3ccc(C)cc3)nc2-c2ccc(OCC)cc2)cc1	-11.8%
Fc1ccc(-c2cn3cc(Cc4ccc(Cl)cc4)sc3n2)cc1	-1.49%
CCC(C(=O)Nc1cc(-c2nc3cccnc3s2)ccc1C)c1ccccc1 (stereo unspecified)	-6.18%
Cc1ccc(Cl)cc1NC(=O)Cn1c(=O)c2ccccc2n2nncc12	-1.61%
CCOc1ccccc1C1CC(=O)Oc2c1c(=O)n(C)c1ccccc21 (stereo unspecified)	-2.55%
Cc1[nH]c(=O)[nH]c(=O)c1S(=O)(=O)N1CCCC(C(=O)NCCc2ccc(Cl)cc2)C1 (stereo unspecified)	active: 65.5%
O=C(NCCC1=CCCCC1)c1ccc2c(c1)ncn2-c1ccc(F)c(F)c1	2.44%
O=c1c2c(-c3ccc(Cl)cc3)ccnc2[nH]n1-c1ccccc1	-20%
CC(=O)c1ccc(N2CCN(S(=O)(=O)c3ccc4[nH]c5c(c4c3)CCCC5)CC2)cc1	2.27%

Compound	inhibition
CCN(Cc1ccccc1)Cc1c(O)ccc2c(=O)c(-c3ccccc3Cl)c(C(F)(F)F)oc12	0.355%
CCc1ccc(Nc2nc(N)nc(CSc3nc4ccccc4s3)n2)cc1	15%
O=C(NCc1cccc(F)c1)c1cccc(NC(=O)c2nsc3ccccc23)c1	26.2%
CCOCc1cc(CN2CCN(c3cccc(Cl)c3)CC2)c(O)c2ncccc12	18.8%
CCCN(CCC)C(=O)CSc1nc2sc3c(c2c(=O)n1-c1ccccc1)CCN(C(C)=O)C3	-6.32%
CC(=O)Nc1cccc(NC(=O)c2c(-c3ccccc3)c(-c3ccccc3)nn(C)c2=O)c1	-19.8%
Cc1nn(C)c2c1c(-c1ccccc1)cc(=O)n2C(C)C(=O)NCc1ccc(F)cc1 (stereo unspecified)	5.13%
CCN1CCN(C(c2cccc(F)c2)c2c(O)cc(C)n(Cc3ccco3)c2=O)CC1 (stereo unspecified)	-4.72%
O=C1CC(c2ccccc2)Cc2[nH]c(=O)c(-c3nc(-c4ccc(Cl)cc4)cs3)cc21 (stereo unspecified)	-6.33%
CC(=O)c1cccc(NC(c2ccc(F)cc2)c2nnc(-c3ccccc3)o2)c1 (stereo unspecified)	21.1%
CCSc1nnc2c(n1)OC(CC)N(C(C)=O)c1ccccc1-2 (stereo unspecified)	-5.18%
Cc1ccc(-n2nnnc2CNC(=O)C(C)C)cc1C	9.74%
COc1ccc(-c2cn3nc(N4CCCC(C(=O)NCc5ccccc5Cl)C4)sc3n2)cc1 (stereo unspecified)	17.5%
Cc1cccc(CNC(=O)CCn2ccc3cc(S(=O)(=O)N4CCCC4)ccc32)c1	-9.54%
COc1ccc(OC)c(CCNC(=O)c2cnn(-c3ccccc3)c2C2CCN(C(=O)OC(C)(C)C)CC2)c1	-5.5%
Cc1ccccc1CSc1nc2c(sc3ccccc32)c(=O)n1CCCOC(C)C	-0.113%
COc1cc(OC)cc(N2CCN(S(=O)(=O)c3ccc(-n4cnnn4)cc3)CC2)c1	10.2% and active: 46.3%
COC(=O)c1cc2oc3ccccc3c2n1Cc1cc(C)ccc1C	-1.61%
CCOC(=O)C1CCCN(Cc2nc(N)nc(Nc3ccccc3)n2)C1 (stereo unspecified)	active: 46.4%
CCOC(=O)CC(NC(=O)N1CCC(CN2CCC(C)CC2)CC1)c1ccccc1 (stereo unspecified)	-12.3%
Cc1cccc(C)c1Nc1c(-c2ccsc2)nc2ccc(Cl)cn12	5.61%
COC(=O)c1c(-c2ccc(Cl)cc2)noc1N1CCN(c2cccc(C(F)(F)F)c2)CC1	-9.73%
CCc1ccccc1NC(=O)NCc1ccc2c(c1)CCN2C(=O)c1ccccc1	1.72%
O=C(Nc1ccccc1C(=O)OCc1cc(=O)n2c3c(sc2n1)CCCC3)c1cccc(Cl)c1	4.98%

Compound	inhibition
CCCn1ccc2c(OCC(=O)NCc3ccccc3Cl)cccc2c1=O	1.39%
O=C(CSc1nccn1Cc1ccccc1)NCc1ccccc1Cl	10.6%
CCOc1ccc(S(=O)(=O)N(CC(=O)NCCSc2ccccc2)c2ccccc2)cc1	-9.82%
CCN(c1ccc(OC)cc1)S(=O)(=O)c1ccc2[nH]c(=O)ccc2c1	2.52%
O=C(NCc1ccc(Cl)cc1)C1CCCN(c2nc3ccccc3n3cccc23)C1 (stereo unspecified)	8.98%
O=C(Cn1c2ncccc2c(=O)n1-c1ccccc1)Nc1ccc(F)c(F)c1	0.0323%
Cc1cc(N2CCCCC2)nc2ccc(NC(=O)/C=C/c3ccccc3Cl)cc12	-4.47%
CCn1cc(C(=O)OCC(=O)Nc2ccc(F)cc2F)c(=O)c2ccc(C)nc21	-18.4%
Cc1cccc(-c2nc(Cn3c(=O)cc(-c4ccccc4)c4c(C)nn(C)c43)c(C)o2)c1	-2.78%
CCCn1c2ccccc2c2cnn(CC(=O)NCCc3ccccc3)c(=O)c21	6.03%
COC(=O)c1ccc(Cn2c(=O)cc(C(F)(F)F)c3c(C)nn(C)c32)cc1	6.59%
CCc1ccc(Nc2ncnc3c2cnn3-c2cc(Cl)ccc2C)cc1	-7.27%
COc1cccc(CNC(=O)C(NS(=O)(=O)c2ccc3c(c2)CCN3C(C)=O)C(C)C)c1 (stereo unspecified)	3.68%
CCOc1ccccc1CC1C(=O)Nc2ccc(Br)cc21 (stereo unspecified)	-10.6%
COc1ccc(OC)c(C(C)NC(=O)Cn2c(=O)cc(C)c3c(C)nn(-c4ccc(C)cc4)c32)c1 (stereo unspecified)	0.671%
COc1ccccc1-c1cc(C(=O)N2CCCCC2C)no1 (stereo unspecified)	3.82%
CCCCC(=O)Nc1ccc2nc(SCC(=O)N3CCCC3)sc2c1	1.35%
COc1ccc(CNC(=O)c2nn(-c3ccccc3C)nc2CO)cc1	-23.4%
COc1ccc(S(=O)(=O)N(C)C)cc1NC(=O)CCCSc1ccccc1	active: 47.7%
Nc1c(-c2nc(-c3cccs3)no2)nnn1-c1cccc(Cl)c1	7.69%
Cc1ccc(S(=O)(=O)Nc2cc(=O)[nH]c3c2CCC3)cc1	active: 37%
CCOc1ccc(NC(=O)C(NS(=O)(=O)c2ccc3c(c2)CCN3C(C)=O)C(C)C)cc1 (stereo unspecified)	-7.85%
CCOc1ccccc1NC(=O)c1nnn(CC(=O)Nc2ccc(OC)c(OC)c2)c1N	10.1%
O=C(CSc1nc2ccccc2nc1Cc1ccc(Cl)cc1)NCCc1ccccc1	-14.2%

Compound	inhibition
Cc1cc(N2CCCC2)ccc1/C=C1/C(=O)N(C)C(=S)N1C	active: 59.5%
CCOC(=O)N1CCC(NC(=O)c2ccc3c(c2)N(Cc2ccc(F)cc2)C(=O)c2ccccc2S3(=O)=O)CC1	-15.2%
Cc1ccc(CNC(=O)c2ccc3c(O)c(S(=O)(=O)c4ccccc4)c(=O)[nH]c3c2)cc1	5.34%
CC(C)(C)C1CCC(N2CCN(c3ccccc3)CC2)CC1 (stereo unspecified)	active: 86.2%
CCc1nonc1NC(=O)c1oc2ccccc2c1C	-23.9%
COc1ccc(Cc2nnnn2CC(=O)O)cc1	active: 35.2%
CCOc1cc(C2c3c(-c4ccc(Br)cc4)n[nH]c3C(=O)N2c2ccc(Cl)cc2)ccc1O (stereo unspecified)	7.31%
CCCCC(CC)CNC(=O)c1ccc2c(=O)n(Cc3ccc(OC)cc3)c(=O)[nH]c2c1 (stereo unspecified)	-7.3%
Cn1nc(C(=O)NCc2ccc(Cl)cc2)c2c1-c1ccccc1SC2	16.7%
CC(=O)Nc1ccc(N(C(=O)c2ccco2)C(C(=O)NC2CCCCC2)c2ccccc2)cc1 (stereo unspecified)	active: 36.7%
Cc1ccc(N(Cc2cccs2)C(=O)c2ccc(Br)o2)cc1	-6.6%
Cc1cc(=O)n2nc(N3CCC(C(=O)Nc4ccc(C)c(Cl)c4)CC3)sc2n1	2.36%
COc1ccc(CNC(=O)Cc2c(C)c3c(cc(C)c4c(C)c(C)oc43)oc2=O)cc1	-14.1%
CSc1ccc2c(c1)C(N1CCN(C)CC1)Cc1ccccc1S2 (stereo unspecified)	active: 81.3%
COc1ccc(CCNC(=O)C2CCCN(c3nc4c(C)cc(C)cc4s3)C2)cc1OC (stereo unspecified)	-9.46%
Cc1nc(-c2ccc(C)c(S(=O)(=O)N3CCC(C(=O)NCc4ccc(Cl)cc4)CC3)c2)no1	-10.1%
CCOC(=O)c1c(NC(=O)c2cc(C(C)C)on2)sc(C)c1C	-13.6%
Cc1cccc(CSc2nc3c(c(=O)[nH]2)C(c2cccc(O)c2)CC(=O)N3)c1 (stereo unspecified)	9.56%
Cc1ccc(S(=O)(=O)C(CNC(=O)c2ccccc2F)c2cccs2)cc1 (stereo unspecified)	13.4%
Cc1cccc(CN2CCN(CC(=O)NCc3ccc(Cl)cc3)C2=O)c1	15.6%
COc1ccc(C2=C(C)C(=O)N(Cc3ccc(C(=O)NCc4ccc(C)cc4)cc3)S2(=O)=O)cc1	-14.1%
COc1ccc(CNC(=O)CN(c2cc(C)cc(C)c2)S(=O)(=O)c2c(C)[nH]c(=O)[nH]c2=O)cc1	7.76%
O=C(CSc1ncccn1)N/N=C/c1cccc(OC2CSC2)c1	active: 36%
CCOc1cc(-c2nc(-c3ccc(Br)cc3)no2)cc(OCC)c1OCC	-14.3%
